Reference: the supplement of paper PMC8728848
The list shows a part of the results.

Columns and labels:
Test in all cases: glycan array binding signal (z-score within array); higher = stronger binding
Conditions in all cases: glycan notation: IUPAC condensed, linker removed
[1] = molecular target: Gal(b1-3)GlcNAc(b1-2)Man(a1-3)[Gal(b1-3)GlcNAc(b1-2)Man(a1-6)]Man(b1-4)GlcNAc(b1-4)GlcNAc
In short: (§1)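 Glycan array data came from 3228 arrays in the Consortium for Functional Glycomics database, and only arrays with an available protein sequence were kept. Glycan names were put into IUPAC-condensed notation, and columns mapping to the same glycan were averaged. The binding signal is a within-array Z-score, averaged across arrays of one protein sequence run at different concentrations or buffers and across linkers. A negative Z-score can be read as non-binding.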

[2] = molecular target: Gal(b1-3)GlcNAc(b1-2)Man(a1-3)[Gal(b1-3)GlcNAc(b1-2)Man(a1-6)]Man(b1-4)GlcNAc(b1-4)[Fuc(a1-6)]GlcNAc
In short: as §1

[3] = molecular target: Gal(b1-3)GlcNAc(b1-2)Man(a1-3)[GlcNAc(b1-4)][Gal(b1-3)GlcNAc(b1-2)Man(a1-6)]Man(b1-4)GlcNAc(b1-4)GlcNAc
In short: as §1

[4] = molecular target: Gal(b1-3)GlcNAc(b1-2)[Gal(b1-3)GlcNAc(b1-6)]Man(a1-6)[Gal(b1-3)GlcNAc(b1-2)Man(a1-3)]Man(b1-4)GlcNAc(b1-4)GlcNAc
In short: as §1

[5] = molecular target: Gal(b1-3)GlcNAc(b1-3)Gal(b1-3)GlcNAc
In short: as §1

[6] = molecular target: Gal(b1-3)GlcNAc(b1-3)Gal(b1-4)Glc
In short: as §1

[7] = molecular target: Gal(b1-3)GlcNAc(b1-3)Gal(b1-4)GlcNAc
In short: as §1

[8] = molecular target: Gal(b1-3)GlcNAc(b1-3)Gal(b1-4)GlcNAc(b1-2)Man(a1-3)[Gal(b1-3)GlcNAc(b1-3)Gal(b1-4)GlcNAc(b1-2)Man(a1-6)]Man(b1-4)GlcNAc(b1-4)GlcNAc
In short: as §1

[9] = molecular target: Gal(b1-3)GlcNAc(b1-3)Gal(b1-4)GlcNAc(b1-2)[Gal(b1-3)GlcNAc(b1-3)Gal(b1-4)GlcNAc(b1-6)]Man(a1-6)[Gal(b1-3)GlcNAc(b1-3)Gal(b1-4)GlcNAc(b1-2)Man(a1-3)]Man(b1-4)GlcNAc(b1-4)[Fuc(a1-6)]GlcNAc
In short: as §1

[10] = molecular target: Gal(b1-3)GlcNAc(b1-3)Gal(b1-4)GlcNAc(b1-3)Gal(b1-4)GlcNAc(b1-2)[Gal(b1-3)GlcNAc(b1-3)Gal(b1-4)GlcNAc(b1-3)Gal(b1-4)GlcNAc(b1-6)]Man(a1-6)[Gal(b1-3)GlcNAc(b1-3)Gal(b1-4)GlcNAc(b1-3)Gal(b1-4)GlcNAc(b1-2)Man(a1-3)]Man(b1-4)GlcNAc(b1-4)[Fuc(a1-6)]GlcNAc
In short: as §1

[11] = molecular target: Gal(b1-3)GlcNAc(b1-3)Gal(b1-4)GlcNAc(b1-6)[Gal(b1-3)GlcNAc(b1-3)]Gal(b1-4)Glc
In short: as §1

[12] = molecular target: Gal(b1-3)GlcNAc(b1-3)Gal(b1-4)[Fuc(a1-3)]GlcNAc
In short: as §1

[13] = molecular target: Gal(b1-3)GlcNAc(b1-3)Gal(b1-4)[Fuc(a1-3)]GlcNAc(b1-6)[Gal(b1-3)GlcNAc(b1-3)]Gal(b1-4)Glc
In short: as §1

[14] = molecular target: Gal(b1-3)GlcNAc(b1-3)GalNAc
In short: as §1

[15] = molecular target: Gal(b1-3)GlcNAc(b1-6)Gal(b1-4)GlcNAc
In short: as §1

[16] = molecular target: Gal(b1-3)GlcNAc(b1-6)GalNAc
In short: as §1

[17] = molecular target: Gal(b1-3)GlcNAc(b1-6)[Gal(b1-3)]GalNAc
In short: as §1

[18] = molecular target: Gal(b1-3)GlcNAc6S
In short: as §1

[19] = molecular target: Gal(b1-3)[Fuc(a1-4)]GlcNAc
In short: as §1

[20] = molecular target: Gal(b1-3)[Fuc(a1-4)]GlcNAc(b1-2)Man
In short: as §1

[21] = molecular target: Gal(b1-3)[Fuc(a1-4)]GlcNAc(b1-2)Man(a1-3)[Gal(b1-3)[Fuc(a1-4)]GlcNAc(b1-2)Man(a1-6)]Man(b1-4)GlcNAc(b1-4)[Fuc(a1-6)]GlcNAc
In short: as §1

[22] = molecular target: Gal(b1-3)[Fuc(a1-4)]GlcNAc(b1-3)Gal(b1-3)[Fuc(a1-4)]GlcNAc
In short: as §1

[23] = molecular target: Gal(b1-3)[Fuc(a1-4)]GlcNAc(b1-3)Gal(b1-4)[Fuc(a1-3)]GlcNAc
In short: as §1

[24] = molecular target: Gal(b1-3)[Fuc(a1-4)]GlcNAc(b1-6)GalNAc
In short: as §1

[25] = molecular target: Gal(b1-3)[GlcNAc(b1-6)]GalNAc
In short: as §1

[26] = molecular target: Gal(b1-3)[Neu5Ac(a2-6)]GalNAc
In short: as §1

[27] = molecular target: Gal(b1-3)[Neu5Ac(a2-6)]GlcNAc(b1-4)Gal(b1-4)Glc
In short: as §1

[28] = molecular target: Gal(b1-3)[Neu5Ac(b2-6)]GalNAc
In short: as §1

[29] = molecular target: Gal(b1-4)Gal
In short: as §1

[30] = molecular target: Gal(b1-4)GalNAc(a1-3)[Fuc(a1-2)]Gal(b1-4)GlcNAc
In short: as §1

[31] = molecular target: Gal(b1-4)GalNAc(b1-3)[Fuc(a1-2)]Gal(b1-4)GlcNAc
In short: as §1

[32] = molecular target: Gal(b1-4)Glc
In short: as §1

[33] = molecular target: Gal(b1-4)Glc6S
In short: as §1

[34] = molecular target: Gal(b1-4)GlcNAc
In short: as §1

[35] = molecular target: Gal(b1-4)GlcNAc(a1-6)Gal(b1-4)GlcNAc
In short: as §1

[36] = molecular target: Gal(b1-4)GlcNAc(b1-2)Man
In short: as §1

[37] = molecular target: Gal(b1-4)GlcNAc(b1-2)Man(a1-3)Man(b1-4)GlcNAc(b1-4)GlcNAc
In short: as §1

[38] = molecular target: Gal(b1-4)GlcNAc(b1-2)Man(a1-3)[Gal(b1-4)GlcNAc(b1-2)Man(a1-6)]Man(b1-4)GlcNAc(b1-4)GlcNAc
In short: as §1

[39] = molecular target: Gal(b1-4)GlcNAc(b1-2)Man(a1-3)[Gal(b1-4)GlcNAc(b1-2)Man(a1-6)]Man(b1-4)GlcNAc(b1-4)[Fuc(a1-6)]GlcNAc
In short: as §1

[40] = molecular target: Gal(b1-4)GlcNAc(b1-2)Man(a1-3)[Gal(b1-4)GlcNAc(b1-2)Man(a1-6)][Gal(b1-4)GlcNAc(b1-4)]Man(b1-4)GlcNAc(b1-4)[Fuc(a1-6)]GlcNAc
In short: as §1

[41] = molecular target: Gal(b1-4)GlcNAc(b1-2)Man(a1-3)[Gal(b1-4)GlcNAc(b1-2)Man(a1-6)][GlcNAc(b1-4)]Man(b1-4)GlcNAc(b1-4)[Fuc(a1-6)]GlcNAc
In short: as §1

[42] = molecular target: Gal(b1-4)GlcNAc(b1-2)Man(a1-3)[GlcNAc(b1-2)Man(a1-6)]Man(b1-4)GlcNAc(b1-4)GlcNAc
In short: as §1

[43] = molecular target: Gal(b1-4)GlcNAc(b1-2)Man(a1-3)[GlcNAc(b1-4)][Gal(b1-4)GlcNAc(b1-2)Man(a1-6)]Man(b1-4)GlcNAc(b1-4)GlcNAc
In short: as §1

[44] = molecular target: Gal(b1-4)GlcNAc(b1-2)Man(a1-3)[Man(a1-6)]Man(b1-4)GlcNAc(b1-4)GlcNAc
In short: as §1

[45] = molecular target: Gal(b1-4)GlcNAc(b1-2)Man(a1-6)Man(b1-4)GlcNAc(b1-4)GlcNAc
In short: as §1

B1: LICBM33A (Lactococcus lactis), Q9CE94 (protein)
chain: MKKLLTGLLVAAGLLSVSLLIKTDTVSAHGYVQSPPARGYQGQLDSQSLGWTAAFNIYGNVISNPQSLEAPKGFPECGPADGRIASANGGLGQIGDFVLDNQTSSRWKKTSISTGSNIFTWKYTAPHKTTKWHYYMTKTGWDQNAPLKHSELELIGTINHDGSPATNNLSHTINIPTDRSGYHIVLAVWDVADTSNAFYNVIDINVNNKNASSQVFGPFL
glycan array binding signal (z-score) [1]: -0.123 | glycan array binding signal (z-score) [2]: 1.73 | glycan array binding signal (z-score) [3]: -0.473 | glycan array binding signal (z-score) [4]: -0.42 | glycan array binding signal (z-score) [5]: -1.08 | glycan array binding signal (z-score) [6]: -0.491 | glycan array binding signal (z-score) [7]: -0.31 | glycan array binding signal (z-score) [8]: -0.015 | glycan array binding signal (z-score) [9]: -0.285 | glycan array binding signal (z-score) [10]: 0.089 | glycan array binding signal (z-score) [11]: -0.307 | glycan array binding signal (z-score) [12]: -0.324 | glycan array binding signal (z-score) [13]: -1.9 | glycan array binding signal (z-score) [14]: -0.488 | glycan array binding signal (z-score) [15]: -0.381 | glycan array binding signal (z-score) [16]: -0.556 | glycan array binding signal (z-score) [17]: -0.694 | glycan array binding signal (z-score) [18]: -0.684 | glycan array binding signal (z-score) [19]: 0.056 | glycan array binding signal (z-score) [20]: -0.183 | glycan array binding signal (z-score) [21]: -0.751 | glycan array binding signal (z-score) [22]: -0.413 | glycan array binding signal (z-score) [23]: 0.285 | glycan array binding signal (z-score) [24]: -0.505 | glycan array binding signal (z-score) [25]: -0.794 | glycan array binding signal (z-score) [26]: -0.369 | glycan array binding signal (z-score) [27]: -0.368 | glycan array binding signal (z-score) [28]: -0.55 | glycan array binding signal (z-score) [29]: -0.162 | glycan array binding signal (z-score) [30]: 0.251 | glycan array binding signal (z-score) [31]: -0.44 | glycan array binding signal (z-score) [32]: -0.3 | glycan array binding signal (z-score) [33]: -0.084 | glycan array binding signal (z-score) [34]: 0.152 | glycan array binding signal (z-score) [35]: 0.602 | glycan array binding signal (z-score) [36]: -1.02 | glycan array binding signal (z-score) [37]: -0.702 | glycan array binding signal (z-score) [38]: 0.408 | glycan array binding signal (z-score) [39]: 0.253 | glycan array binding signal (z-score) [40]: -0.48 | glycan array binding signal (z-score) [41]: -0.52 | glycan array binding signal (z-score) [42]: -0.11 | glycan array binding signal (z-score) [43]: -0.302 | glycan array binding signal (z-score) [44]: -0.163 | glycan array binding signal (z-score) [45]: 2.27
